The structures appear in SMILES notation. The campaign covered roughly 340,000 compounds. About 6,900 (2%) were called active. Cut-off read from the data, not from the text of the source: active = inhibition above about 30%; inactive = below that, where a call was filed. Only a part is listed here, and it is no random draw. The source gives no active or inactive call for entries shown without one.

This note sets out measurements from PubChem BioAssay AID485344 (National Center for Advancing Translational Sciences (NCATS), 2010).

The target of this test is D(2) dopamine receptor (Homo sapiens) (UniProt P14416). The experiment in a line: HTS Assay for Allosteric Antagonists of the Human D2 Dopamine Receptor: Primary Screen for Antagonists. Note: 0% is about no effect. The following applies: HEK293 TREx D2 cells, calcium flux, dopamine EC80; at 10 µM; stronger effect = higher value. Put shortly: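 Antagonism is scored as inhibition of an EC80 dopamine-evoked calcium signal in a force-coupled, tetracycline-inducible HEK293 T-REx D2 line, with compound present 180 s before agonist.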
Sequence of UniProt P14416 (P14416 whole entry, looked up): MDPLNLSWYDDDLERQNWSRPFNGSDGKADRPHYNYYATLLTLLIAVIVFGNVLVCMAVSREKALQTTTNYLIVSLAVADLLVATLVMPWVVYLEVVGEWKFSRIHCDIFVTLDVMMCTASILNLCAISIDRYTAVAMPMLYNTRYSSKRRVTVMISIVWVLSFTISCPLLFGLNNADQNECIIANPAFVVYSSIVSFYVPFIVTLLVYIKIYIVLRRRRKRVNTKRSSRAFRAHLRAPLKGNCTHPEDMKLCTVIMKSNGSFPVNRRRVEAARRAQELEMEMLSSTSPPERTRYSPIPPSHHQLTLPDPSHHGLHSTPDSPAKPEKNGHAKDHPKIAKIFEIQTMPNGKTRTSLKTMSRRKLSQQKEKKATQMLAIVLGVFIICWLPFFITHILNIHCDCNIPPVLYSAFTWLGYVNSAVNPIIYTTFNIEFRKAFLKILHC
As for `CCOc1ccccc1CNC(=O)c1ccc(NC(=O)N2CCSc3ncccc32)cc1`, the inhibition was -12.1%.

In the case of `Fc1ccc(-n2ncc3c(N4CCC(Cc5ccccc5)CC4)ncnc32)cc1`, the inhibition was -13.2%.

On to `COc1ccc2oc(=O)c(-c3cn4c(n3)sc3cc(OC)ccc34)cc2c1`, for which the inhibition was -20.3%.

Consider `COc1ccc(OC)c(CNC(=O)Cn2nc(C)c3nn(-c4ccc(Cl)cc4)c(C)c3c2=O)c1`, for which the inhibition is 1.82%.

On to `COc1ccc(/C=C/C(=O)Nc2nc3n(n2)C(c2ccccc2)C=C(c2ccc(Cl)cc2)N3)cc1` (configuration not stated), for which the inhibition is -11.8%.

Take `COc1ccc2c(Sc3ccccc3)c(C(=O)NCCCN3CCCCC3)[nH]c2c1`: the inhibition is 14.1%.

`Cc1cccc(CCNC(=O)c2cnc3c(C)cccn3c2=O)c1`: the inhibition came to 16%.

In the case of `CC(C)(C)c1ccc(S(=O)(=O)c2cn(CC(=O)Nc3ccccc3)c3ccccc3c2=O)cc1`, the inhibition was determined as 4.14%.

With `COc1ccccc1CNC(=O)Cc1csc2nc(-c3ccccc3)cn12`, the inhibition was determined as 8.6%.

`Cc1ccc(CNC(=O)c2ccc3c(c2)N(Cc2ccccc2)C(=O)c2ccccc2S3(=O)=O)cc1`: the inhibition is -25.4%.

As for `COC(=O)CN1C(c2ccc(OC)cc2)=Nc2ccc(Cl)cc2C1c1ccccc1` (configuration not stated), the inhibition was active: 91.4%.

Take `O=C(Nc1nnc(S(=O)(=O)N2CCCc3ccccc32)s1)c1cccc(F)c1`: the inhibition is -12.3%.

On to `COc1ccc(N(C(=O)c2cccc(C)c2)S(=O)(=O)c2ccc(C)cc2)cc1`, for which the inhibition is -5.26%.

As for `COC(=O)C1CCN(CC(=O)Nc2cc(C)c3c(=O)oc4ccccc4c3n2)CC1`, the inhibition was 2.81%.

In the case of `Cc1cc(C)c(NC(=O)Cn2ccn(-c3cccc(Cl)c3)c(=O)c2=O)c(C)c1`, the inhibition was -27.6%.

Turning to `O=C(CCC1N=C2c3ccccc3N=C(SCc3ccccc3F)N2C1=O)NCCc1ccccc1` (configuration not stated), the inhibition is 12.6%.

Regarding `CCn1c(SCc2ccc(F)cc2Cl)nnc1-c1nonc1NC(C)=O`, the inhibition is -9.47%.

In the case of `Cc1ccc2c(c1)N(C(=O)C1CCN(S(=O)(=O)c3c(C)noc3/C=C/c3ccccc3F)CC1)CCO2`, the inhibition is -15%.

Regarding `COc1ccc(N(Cc2cccs2)C(=O)c2ccc(C(C)(C)C)cc2)cc1`, the inhibition is -4.53%.

`COc1cc2[nH]c(=O)n(Cc3ccc(C(=O)N4CCN(c5cc(Cl)ccc5C)CC4)cc3)c(=O)c2cc1OC`: the inhibition is 6.18%.

As to `O=C(NCC(c1ccc2c(c1)OCO2)N1CCOCC1)C(=O)Nc1ccc(F)cc1F` (configuration not stated), the inhibition is -11.8%.

For `Cc1cc(NC(=O)CN2CC(C)OC(C)C2)n(-c2nc3ccccc3s2)n1` (configuration not stated), the inhibition was active: 34.3%.

For `O=C(CN1C(=O)CC(c2ccco2)Sc2ccccc21)Nc1ccc(C(F)(F)F)cc1` (configuration not stated), the inhibition was -10.3%.

For `O=C(Nc1cccc(Cl)c1)N1CCC(CN2CCOCC2)CC1`, the inhibition is -1.83%.

With `CCOC(=O)c1nc(Nc2ccccc2OC)c2ccccc2n1`, the inhibition is -18.5%.

Regarding `Cc1cn2c(=O)cc(COc3ccc(NC(=O)c4ccccc4C)cc3)nc2s1`, the inhibition was -0.63%.

In the case of `O=C(CCCCCn1c(=O)[nH]c2ccsc2c1=O)N1CCN(C2CCCCC2)CC1`, the inhibition was active: 52.8%.

As for `CC(C)c1nnc(NC(=O)CC23CC4CC(CC(C4)C2)C3)s1`, the inhibition was active: 36.1%.

For the compound `Cc1nn(C)c2c1c(C(F)(F)F)cc(=O)n2CC(=O)N1CCCCC1C` (configuration not stated), the inhibition turned out to be 17.4%.

In the case of `CCCOc1ccc(-c2nc(N3CCCCC3)c3ccccc3n2)cc1`, the inhibition came out at 1.45%.

As to `Cc1ccc(-n2ncc(C(=O)Nc3ccc4c(c3)OCO4)c2C2CCN(C(=O)OC(C)(C)C)CC2)c(C)c1`, the inhibition is -5.48%.

Regarding `CCOC(=O)CSc1nc(C)cc(Oc2ccc(=O)n(C)n2)n1`, the inhibition is active: 35.8%.

For the compound `Cc1c(C(=O)Nc2ccc(F)c(Cl)c2)oc2ccc(S(=O)(=O)N(C)C3CCCCC3)cc12`, the inhibition is -6.84%.

As for `Cc1oc2ccc(O)c(CN3CCCCC3)c2c1C(=O)Nc1cccc(C(F)(F)F)c1`, the inhibition was -1.8%.

Consider `CCc1ccc(OCc2nc(-c3ccc(OC)c(OC)c3)no2)c(Br)c1`, for which the inhibition was -21.1%.

In the case of `CC1(C(=O)NC2CCCCC2)Cc2ccccc2C(=O)N1Cc1ccccc1Cl` (configuration not stated), the inhibition stood at 5.41%.

For `COc1cc(NC(=O)CCc2nc3cccnc3n2Cc2cccs2)cc(OC)c1OC`, the inhibition is -5.24%.

As to `O=C(CCc1nc2cccnc2n1-c1ccccc1)Nc1ccc(Cl)c(Cl)c1`, the inhibition stood at 16.1%.

Take `CC(=O)c1ccc(N2C(=O)N(Cc3ccccc3C#N)c3ccccc3S2(=O)=O)cc1`: the inhibition was -26.8%.

Turning to `CN(C)c1ccc(C2C=C(c3ccccc3)Nc3nnnn32)cc1` (configuration not stated), the inhibition is -1.62%.

Take `Nn1c(SCC(=O)N2CCCCCC2)nnc1-c1ccncc1`: the inhibition was active: 30.1%.

Regarding `CCOc1ccc(C(=O)NCC(c2ccc3c(c2)OCO3)N2CCOCC2)cc1` (configuration not stated), the inhibition worked out at 11.6%.

`CCc1ccccc1N(C)C(=O)c1cn(-c2cccc(OC)c2)c(=O)c2ccccc12`: the inhibition is 1.36%.

For the compound `Cc1cccc(CS(=O)(=O)Cc2ccc(C(=O)NCc3cccnc3)o2)c1`, the inhibition is active: 33.4%.

Consider `Cc1nc2n(c(=O)c1CCN1CCC(c3noc4cc(F)ccc34)CC1)CCCC2`, for which the inhibition was active: 86.3%.

For the compound `CCc1ccc(NC(=O)Cn2nnc(C(=O)NCc3ccc(C)cc3)c2N)cc1`, the inhibition is 3.5%.

Take `CCOc1ccccc1C(=O)NC1CCN(Cc2ccccc2)CC1`: the inhibition was active: 89.2%.

`CCc1ccc2c(c1)NC(c1ccc(C)cc1)=NC(c1cccs1)=N2`: the inhibition is 8.88%.

For the compound `CC(=O)Nc1ccc(NC(=O)c2ccc3c(c2)NC(=O)c2ccccc2S3)cc1`, the inhibition turned out to be 5.95%.

For `CCn1c(=O)sc2cc(NS(=O)(=O)c3ccc(C)cc3)ccc21`, the inhibition was -9.46%.

For the compound `CCOC(=O)N1CCc2c(sc3c2c(=O)n(Cc2ccccc2)c(=O)n3CC(=O)Nc2ccc(C)cc2C)C1`, the inhibition was -10.6%.

As for `O=C(Nc1nnc(S(=O)(=O)N2CCOCC2)s1)c1ccccc1F`, the inhibition is 7.81%.

For the compound `Cc1ccc(NC(=O)C(C)Sc2nc(-c3ccccc3)c(C#N)c(=O)[nH]2)c(C)c1` (configuration not stated), the inhibition is 5.22%.

As for `O=c1c(N2CCc3ccccc3C2)csc2ccc(Cl)cc12`, the inhibition is -23.7%.

Turning to `COc1ccc(Nc2c(-c3ccc(N4CCOCC4)cc3)nc3ncccn23)cc1OC`, the inhibition was -6.54%.

As for `CC(C)c1cnc2c(c1SCC(=O)N1CCCCC1)c(=O)n(C)c(=O)n2C`, the inhibition is -16.9%.

With `CCOc1cc(CN2CCN(S(=O)(=O)c3ccc(C)cc3)CC2)ccc1OC`, the inhibition is 0.306%.

On to `COc1ccc(/C=C/C(=O)Nc2sc(C)c(C)c2C(=O)O)cc1`, for which the inhibition was determined as 6.51%.

`CCc1ccc(NC(=O)CN2C(=O)CCSc3ccccc32)cc1`: the inhibition was -8.56%.

As to `O=C(NCCc1ccccc1)c1ccc(CS(=O)(=O)Cc2ccccc2Cl)o1`, the inhibition turned out to be 3.32%.

For `Cc1ccc(CNC(=O)C2CCCN(S(=O)(=O)c3cn(C)cn3)C2)cc1` (configuration not stated), the inhibition is -25.6%.

`Cc1cc(=O)n(CC(=O)NCc2ccc(OC(C)C)cc2)c2c1c(C)nn2-c1cccc(F)c1`: the inhibition stood at 6.41%.
